# Data: ChEMBL document CHEMBL4888484, “Replenishing the malaria drug discovery pipeline: Screening and hit evaluation of the MMV Hit Generation Library 1 (HGL1) against asexual blood stage Plasmodium falciparum ,using a nano luciferase reporter read-out” (2022)
# Values joined by “and” are separate entries in the source; they are usually repeats but may differ in a detail not shown here. Identical values can stand only once. Among all 150,000 compounds or so, about 540 (0.36%) showed an effect of 50% or more. The list shows a part of the results.
# System: Plasmodium falciparum
# Assay: Primary screen in NF54 nanoGlo assay, in single point, at 2uM, 72h; a lower Z score goes with more inhibition
# Format: functional, Erythrocyte
# Settings: timepoint 72 hour
Compound,% Inhibition [%],Z score,% Inhibition (2 µM)
CC(C)(C)c1ccc(NC(=O)c2cccc[n+]2[O-])cc1,-24,2.72,–
Cn1cc(CCNC(=O)[C@@H]2COCC(=O)N2Cc2ccccc2)cn1,-2,0.21,–
COc1cc2c(cc1OC)CN(C(=O)CCCN1C(=O)c3ccc(C)cc3C1=O)CC2,-4,0.72,–
CCCc1cnc(NCCc2n[nH]c(=O)n2C)nc1,5,-0.79,–
CC(C)(NC(=O)C(F)(F)F)C(=O)NCc1cncc(F)c1,-5,0.79,–
CCn1c(=O)c(N2CCC(C(=O)N3CCN(c4cccc(OC)c4)CC3)CC2)nc2ccccc21,-2,0.42,–
O=C(Cn1nc(-c2ccc(F)cc2)c2cnc3ccccc3c21)Nc1ccccc1F,-26,2.33,–
COc1cccc(-c2nnc(N3CCN4CCCC[C@H]4C3)n2Cc2ccccc2)c1OC,11,-1.51,–
Cc1csc(C(C)NC(C)c2nc(C(C)C)no2)n1 (configuration not stated),-16,2.54,–
Cn1cc(CNC(=O)Nc2nnc(CCN3CCOCC3)s2)cn1,-22,3.26,–
Cc1n[nH]c(C)c1CC(=O)Nc1cnn([C@@H](C)C2CC2)c1,-7,1.23,–
Cc1nc(-n2nc(C)c(CC(=O)N3CCOCC3)c2O)sc1C,2,-0.22,–
COCCn1ccc(NC(=O)C(C)N2C(C)CCC2C)n1 (configuration not stated),2,-0.19,–
c1ccc(-c2noc(CN3CCC[C@@H]3Cn3cncn3)n2)nc1,6,-0.89,–
Cc1[nH]ccc1C(=O)Nc1ccc(N(C)C)c(Cl)c1,-15,1.42,–
COc1cccc(C(=O)N2CCN(C(=O)Nc3ccc(S(=O)(=O)N(C)C)s3)CC2)c1,-17,2.72,–
CC1CC(C)CN(CC(C)NC(=O)Cc2cc(-c3ccccc3)on2)C1 (configuration not stated),1,-0.12,–
CN(C)C(=O)c1ccc(-n2ccnc2-c2ccc(C(=O)O)s2)s1,-11,1.82,–
Cc1cc(C(=O)O)nc(N2CCN(C(c3ccccc3)c3ccccc3)CC2)n1,-22,2.57,–
C[C@H]1CCCN(S(=O)(=O)NCc2cccs2)C1,-8,1.24,–
CN(C[C@H]1CCCOC1)C(=O)Nc1ccc(F)cn1,-1,0.11,–

Compound,% Inhibition [%],Z score,% Inhibition (2 µM)
COC(C)CS(=O)(=O)NC(c1nccs1)C1CC1 (configuration not stated),1,-0.21,–
COc1cccc(CC(=O)N2CC(c3nc(C)no3)C2)c1,-13,2.5,–
Cc1nn(C)c2nc(NCC3(C)COC3)sc12,0,0.06,–
CCCN1C(=O)[C@@H]2CC[C@H]1CN(C(=O)c1cnn(CCC)c1C)C2,14,-1.62,–
Cc1cnc(N(C)Cc2ncccn2)nc1,-5,0.82,–
Cn1cc(S(=O)(=O)N2C[C@]3(C)CC[C@@H](C3)C2(C)C)cn1,-8,1.09,–
COc1ccc(N2CCN(C(=O)c3cc(NC(C)=O)c4c(c3)ncn4CCc3ccccn3)CC2)cc1,1,-0.11,–
O=C(CCn1cccn1)N1CCC[C@@]2(CCC(=O)N(Cc3ccncc3)C2)C1,-12,2.31,–
N[C@@H]1c2ccccc2C[C@H]1NS(=O)(=O)C1CC1,-3,0.65,–
CC(C)[C@H](CNC(=O)N1CCOC2(CCC2)C1)c1ccnn1C,-1,0.06,–
CCn1cnnc1CN1CCC(CNC(=O)[C@@H]2CCc3ccccc32)CC1,7,-1.06,–
Cc1cnc(C(=O)NC[C@@H](c2ccco2)N2CCCC2)cn1,-7,1.41,–
C[C@H]1CN(c2ncnc3[nH]ccc23)CC(=O)N1,-2,0.29,–
CCOc1cc(CCCNC(=O)C(C)(C)C#N)ccc1OC,-5,0.45,–
Cc1ccc(C2C(C(=O)N3CCC(C)CC3)CCC(=O)N2C)cc1 (configuration not stated),36,-4.85,–
CNC(=O)CCC(C)(C)NC(=O)Nc1ccc(C)c(C(C)C)c1,-21,2.7,–
CC(C)C(=O)N1CCc2ccc(OCc3ccc(C(=O)NCC4CC4)o3)cc2[C@@H]1c1cccc(F)c1,11,-1.63,–
O=C(OCCN1CCOC1=O)c1ccc2c(c1)CCC2,34,-3.44,–
COc1c2c(c(Br)c3c1[C@H](CC(=O)NC1CCCC1)N(C)CC3)OCO2,-11,2.01,–
Cc1cnc(C)c(NCc2ncccc2F)n1,3,-0.32,–
O=C(CCN1CCOC(C2CCCO2)C1)c1ccc(F)cc1 (configuration not stated),-6,0.54,–

Compound,% Inhibition [%],Z score,% Inhibition (2 µM)
CCc1noc(CN(CCC(C)C)C2CC2)n1,1,-0.17,–
Cc1nccn1C[C@@H](C)CNC(=O)c1nccc2c(S(N)(=O)=O)cccc12,-11,1.5,–
Cc1ccoc1C(=O)N1CCC([C@]2(Cc3cccc(F)c3)NC(=O)N(CCN(C)C)C2=O)CC1,7,-1.26,–
FC1=CCCN(Cc2cc3ccccc3nc2N2CCCCC2)C1,-11,1.13,–
O=C(NCC1(O)CCCCC1)c1cccc(-c2ccc3nc[nH]c3c2)c1,-7,0.85,–
c1ncn(CCN2CCOC[C@@]23CCOC3)n1,-12,1.9,–
C[C@@H]1Oc2ccc(NS(=O)(=O)c3ccc(F)cc3)cc2CN(Cc2cccc(C(F)(F)F)c2)C1=O,13,-1.64,–
Cc1cccc(NC(=O)N[C@@H](C)CS(C)(=O)=O)c1Br,-8,1.54,–
O=C(N[C@@H]1CN(Cc2ccccn2)CCC[C@H]1O)c1ccc(OCc2ccccc2)cc1,59,-6.9,–
C[C@H]1CCCCN1C(=O)c1ccc(-c2nc(-c3ccc(F)cc3)no2)cc1,-16,1.85,–
Cc1ccc2c(c1)NC(=O)C[C@@H]1CCN(C(=O)c3c(F)cccc3F)C[C@@H]1CCO2,-5,0.79,–
Clc1ccc(Cc2nc([C@H]3CCOC3)no2)c(Cl)c1,2,-0.29,–
Cc1ccc(S(=O)(=O)N2CCN(c3cc(Oc4ccccc4F)ncn3)C[C@@H]2C)cc1,-8,1.26,–
NCc1nc(COc2ccc3ccccc3c2)no1,–,–,-10% and 5%
COc1cccc(CN2CCN([C@H]3CCCC[C@@H]3O)CC2)c1OC,-9,0.84,–
Cc1ccc(Cc2nc(CN3C(=O)NC(C)(C)C3=O)no2)cn1,-6,1.06,–
CCCOc1cc(C)ccc1CNC(=NC)NCc1nc(C)c(C)o1,-5,0.53,–
O=S(=O)(NCc1noc(C2CC2)n1)c1ccc(-c2ccn[nH]2)o1,7,-1.43,–
Cc1ccc(-c2noc(-c3ccc4c(c3)OCCO4)n2)cc1,7,-0.97,–
CCCN(CC1CC1)C(=O)c1cnc2ccccn2c1=O,-2,0.49,–
Cc1cc(C)n([C@@H](CNS(=O)(=O)CCC(F)(F)F)c2cccs2)n1,9,-1.2,–

Compound,% Inhibition [%],Z score,% Inhibition (2 µM)
CC[C@@H](C(=O)NCC1CCN(C(=O)c2c(O)cccc2O)CC1)n1cccn1,-10,1.99,–
COc1ccc([C@@H]2CCCN2Cc2cnc(C)o2)nc1,6,-0.76,–
CCS(=O)(=O)N(CC(=O)N(Cc1ccc(C)cc1)C1CCN(S(=O)(=O)Cc2ccccc2)CC1)CC(C)C,-10,1.55,–
Cc1[nH]ncc1C(=O)N(C)CC1(C)CCN(Cc2ccccc2)CC1,-7,0.72,–
CCn1cnnc1-c1cccc(NCc2csc(C(C)(C)C)n2)c1,2,-0.32,–
N#Cc1c(-c2ccccc2)nc(N2CCCCC2)c(C#N)c1N,-1,0.22,–
CC1(C)C[C@H](NC(=O)c2ccc(-c3ccncc3)c(F)c2)CO1,-16,1.91,–
O=C(CCN1CCO[C@H](c2ccco2)C1)c1ccccc1,-4,0.5,–
CCc1cccc(NC(=O)c2c(C)sc3ncnc(N4CCCC4)c23)c1,0,-0.01,–
CCc1noc(CNC(=O)c2c3c(nn2C)CCCC3)n1,-5,0.46,–
COc1ccccc1-c1noc(CCCC(=O)Nc2ccc(-c3nc4cc(C)ccc4o3)cc2)n1,-27,2.4,–
Cc1cc(N2C[C@H](NC(=O)C3CCOCC3)[C@@H](C3CC3)C2)cc(C)n1,-8,1.34,–
CS(=O)(=O)N(c1ccc(F)c(Cl)c1)S(C)(=O)=O,-11,1.51,–
C=CCC(=O)N1CCN(CCc2ccccc2)[C@@H]2CS(=O)(=O)C[C@@H]21,3,-0.54,–
CC#CCn1ccnc1-c1cncc(Br)c1,-16,2.28,–
CCOc1cc(CC#N)ccc1OCC(F)(F)F,-3,0.39,–
Cc1cc(NC(=O)COc2ccccc2-c2nccs2)n(C)n1,-5,0.46,–
Nc1nnnn1CC(=O)N[C@@H]1COCC[C@@H]1Oc1ccc(F)cc1,-16,1.74,–
COCCNC(=O)[C@@H](NC(=O)c1ccccc1F)C1CCN(C(=O)c2cccs2)CC1,-9,0.93,–
O=C(c1cccs1)N1CCN(c2ccc(-c3cccs3)nn2)CC1,7,-1.34,–
CCc1ccccc1S(=O)(=O)N1CC(CN2CCOCC2)C1,11,-2.04,–
